The assay deals with Plasmodium falciparum. The experiment in a line: Primary screen in NF54 nanoGlo assay, in single point, at 2uM, 72h; a lower Z score goes with more inhibition. The class given is functional, Erythrocyte. As to conditions: timepoint 72 hour.

From ChEMBL document CHEMBL4888484, “Replenishing the malaria drug discovery pipeline: Screening and hit evaluation of the MMV Hit Generation Library 1 (HGL1) against asexual blood stage Plasmodium falciparum ,using a nano luciferase reporter read-out” (2022) come the findings set out here.

SMILES strings stand for the structures. Where “and” joins values, the source holds several entries; their conditions need not be identical. Equal entries are not always repeated. Screen size: about 150,000 compounds; about 540 (0.36%) showed an effect of 50% or more. The list shows a part of the results.

Take `O=C1CC[C@H](COC(=O)c2cc(-c3ccc(F)cc3)on2)N1`: the “% Inhibition” value is listed as -1% and the Z score is 0.22.
In the case of `COc1cccc(-c2cc3n(C)c(C)c(CCC(=O)N4CCCC4)c(=O)n3n2)c1`, the “% Inhibition” value was -1% and the Z score came to 0.15.
`Cn1ncc(Br)c1C(=O)N1CCC[C@H]1c1cccc(F)c1`: the “% Inhibition” value is given as -9% and the Z score is reported as 1.81.
As for `COc1ccc(CN2C(=O)N(Cc3c(F)cccc3Cl)c3ccccc3S2(=O)=O)cc1`, the “% Inhibition” value was -8% and the Z score turned out to be 0.92.
Take `CC(=O)N(c1nc(Cn2ccnn2)cs1)C1CC1`: the “% Inhibition” value is given as -2% and the Z score is 0.38.
The matching figures for `Cn1cc([C@@H]2C[C@H]2C(=O)NCc2ccc(N3CCCS3(=O)=O)c(F)c2)cn1`: -4% and 0.41.
Turning to `O=C(COc1ccccc1)N1CCCCCCC1`, the “% Inhibition” value is reported as -6% and the Z score is given as 1.22.
In the case of `CN1C(=O)c2ccc(NC(=O)c3cc4c(s3)CCCCC4)cc2C1=O`, the “% Inhibition” value is given as -14% and the Z score came to 2.3.
`CCc1cc([C@H](C)NC(=O)c2cn(CC)nc2C)on1`: the “% Inhibition” value is -9% and the Z score came to 0.85.
The matching figures for `C[C@@]1(C(=O)NC2CCCC2)COc2c(oc3ccccc23)C(=O)N1Cc1cccc(F)c1`: -6% and 0.61.
As for `COC1CCN(c2nc(C#N)c(Cl)s2)CC1`, the “% Inhibition” value is on record as -12% and the Z score is recorded as 1.47.
For `CCC(Cc1ccc(C(F)(F)F)cc1)C(=O)N[C@@H]1C=C[C@H](CO)C1` (some centres not stated), the “% Inhibition” value is listed as -18% and the Z score was 1.78.
As for `CC(C)(C)OC(=O)NCc1cccc(CN)c1`, the “% Inhibition” value is 0% and the Z score turned out to be 0.07.
For `CC(C)(C)c1ccc(NC(=O)CCn2ccc(=O)[nH]c2=O)cc1`, the “% Inhibition” value is recorded as -10% and the Z score came out at 1.09.
As for `CC(C)CN1CCCC1C(=O)N1CCO[C@H]2CCC[C@H]21` (some centres not stated), the “% Inhibition” value was -5% and the Z score worked out at 0.92.
`CCC(C)C(C)C(=O)N(C)CCN(C)C(=O)C12CC(C(C)(C)C)(C1)C2` (configuration not stated): the “% Inhibition” value is -6% and the Z score stood at 0.85.
As for `O=C([C@H]1CCCN(c2ccncc2F)C1)N1CCCC1`, the “% Inhibition” value was -6% and the Z score is recorded as 0.56.
Take `CC(C)CCNC(=O)CN1C(=O)[C@H](C)NC(=O)c2ccccc21`: the “% Inhibition” value is -8% and the Z score worked out at 0.94.
For `CC(C)=CCN1CCC(Oc2ccc(C)cc2)(C(=O)O)CC1`, the “% Inhibition” value is given as 3% and the Z score was -0.56.
For `COC1(C)CCCN(C(=O)NC(C)CCc2ccc(C)o2)CC1` (configuration not stated), the “% Inhibition” value was -17% and the Z score stood at 2.13.
For the compound `CC(C)N(CCC(=O)NCc1ccccc1)c1nc(C2CC2)nc2cc(Cl)ccc12`, the “% Inhibition” value is given as -11% and the Z score stood at 2.15.
Consider `CCOc1ccccc1C(=O)N1CC2(C[C@@H](C(=O)NC(C)C)N(C)C2)C1`, for which the “% Inhibition” value is -17% and the Z score is 2.02.
For `CCCN(C)c1nccn2c(=O)n(CC(=O)Nc3cccc(C(C)=O)c3)nc12` the same measures were -4% and 0.52.
As to `Cc1ccccc1N1CCN(S(=O)(=O)CC2CCOCC2)CC1`, the “% Inhibition” value is on record as -8% and the Z score is reported as 1.51.
On to `CC(C)S(=O)(=O)N(C)C(=O)c1cccs1`, for which the “% Inhibition” value was -14% and the Z score is 2.31.
Turning to `Cc1nn(C)c(C)c1S(=O)(=O)NC(=O)CC1CC2CCC1C2` (configuration not stated), the “% Inhibition” value is reported as -7% and the Z score is on record as 1.23.
For `COc1cc2c(cc1CC#N)CCC(C)(C)O2`, the “% Inhibition” value amounted to 5% and the Z score was -0.59.
Consider `c1ccc(-c2c[nH]c3c(N4CCCCC4)ncnc23)cc1`, for which the “% Inhibition” value turned out to be 32% and the Z score was -3.58.
Take `Cc1ccnc(N2CCOc3ccccc3C2)n1`: the “% Inhibition” value was -13% and the Z score is given as 1.69.
As to `COc1ccc(S(=O)(=O)N2CCc3nn(C)c(=O)n3CC2)cc1Cl`, the “% Inhibition” value is listed as -20% and the Z score came to 2.62.
As to `CCCc1noc([C@H](C)OC(=O)c2cccc(OC)c2O)n1`, the “% Inhibition” value is -6% and the Z score is 0.55.
As for `CC(C)(C)n1cc(CNc2ncc(F)cc2Br)nn1`, the “% Inhibition” value is given as 17% and the Z score is recorded as -1.97.
Regarding `CC(C)n1cc(C(=O)N(C)[C@@H](C)c2cncs2)cn1`, the “% Inhibition” value was 0% and the Z score turned out to be 0.02.
The matching figures for `O=C(Nc1ccc(Cl)cc1)N1Cc2nc[nH]c2C[C@H]1c1nc(-c2ccncc2)no1`: -15% and 2.86.
For `Cc1cc(CS(=O)(=O)CCCN2C(=O)NC(C)(C)C2=O)no1` the same measures were -17% and 1.56.
For `Cc1cc(NC(=O)c2ccccc2C(=O)c2ccc(Cl)cc2)no1`, the “% Inhibition” value is listed as -29% and the Z score is 3.38.
With `CCS(=O)(=O)NCCNc1cccc(C)n1`, the “% Inhibition” value was -5% and the Z score is given as 0.69.
Regarding `O=C(c1ccc2nc(-c3ccc(F)cc3)cn2c1)N1C[C@@H]2[C@H](C1)[C@H]1CC[C@@H]2O1`, the “% Inhibition” value is recorded as -7% and the Z score is recorded as 1.1.
Regarding `O=C(NCCn1nc(-n2cncn2)ccc1=O)Nc1cc(Cl)ccc1Cl`, the “% Inhibition” value stood at 8% and the Z score is on record as -1.26.
The matching figures for `CC(C)(C)OC(=O)Nc1cnc(-c2ccccc2)s1`: -10% and 2.05.
The matching figures for `O=C(NC1CCCCC1)N1CCCCC[C@@H]1CN1CCCC1`: -8% and 1.3.
In the case of `COc1ccc(Cl)cc1S(=O)(=O)N(C)c1cnccn1`, the “% Inhibition” value was -1% and the Z score came out at 0.25.
For `Cc1ccc(NC[C@H]2CCN(Cc3nc(-c4ccccc4)no3)C2)nc1` the same measures were -12% and 1.29.
Take `O=C(c1cnn(CCF)c1)N1CC(Cc2ccoc2)C1`: the “% Inhibition” value is given as -12% and the Z score is listed as 1.93.
With `Cc1ccc(OCc2nc(C)c(C(=O)Nc3nnc(C4CC4)s3)s2)cc1C`, the “% Inhibition” value was -4% and the Z score came to 0.54.
Consider `CC1CC(N(C)Cc2ccccc2Cl)C(=O)O1` (configuration not stated), for which the “% Inhibition” value is on record as 0% and the Z score amounted to 0.04.
For `CS(=O)(=O)c1ccc(-c2nc(CN3CCCCC[C@@H]3CCO)cs2)cc1` the same measures were 9% and -1.52.
Take `Cc1nc(C)c(CN(C)C2CCS(=O)(=O)CC2)s1`: the “% Inhibition” value came out at 12% and the Z score is -1.23.
In the case of `C[C@@H](c1ccc(F)cc1)S(=O)(=O)CC(N)=O`, the “% Inhibition” value was -11% and the Z score is 2.22.
For the compound `CC1CC(C)CN(C2CCN(C(=O)c3cccs3)CC2)C1` (configuration not stated), under “2 µM”, the “% Inhibition” value is 2% and 1%; the Z score was -0.22 and -0.14.
As to `Cc1cc(C(=O)NCC2(NC(=O)OC(C)(C)C)CCCCCC2)on1`, the “% Inhibition” value is listed as -1% and the Z score was 0.15.
As for `CCn1cc(C)c(C(=O)O)c1CC(=O)Nc1cc(C)cc(C)c1`, the “% Inhibition” value stood at 5% and the Z score was -0.6.
Turning to `Cc1ccc(-c2nc3cccc(C)n3c2Nc2ccc3c(c2)OCCO3)o1`, the “% Inhibition” value worked out at 1% and the Z score is given as -0.1.
`COc1ccc(F)cc1C(NC(=O)CCc1cc(O)no1)[C@H]1C[C@H](O)C1` (some centres not stated): the “% Inhibition” value is reported as -6% and the Z score was 1.03.
For the compound `O=C1NC2(CCCC2)C(=O)N1CCNc1ccn(-c2ccccc2)n1`, the “% Inhibition” value was -12% and the Z score is given as 1.76.
Consider `Cc1c(-c2cc(C(=O)NCCc3ccc4c(c3)OCO4)no2)cnn1C`, for which the “% Inhibition” value is listed as -6% and the Z score is 0.74.
On to `Cc1nc(C)c(C)c(N(C)CC2(CO)CCC2)n1`, for which the “% Inhibition” value is on record as -11% and the Z score is recorded as 1.41.
In the case of `O=C(Cn1cnnn1)N1CCC(F)(c2ccc(Cl)cc2)CC1`, the “% Inhibition” value was -10% and the Z score came to 1.98.
For `COC[C@]1(C(=O)O)CCN(c2ccnc(N(C)C)n2)C1`, the “% Inhibition” value is -15% and the Z score came to 2.91.
Turning to `Cc1cc(C)n(CCN(C)C(=O)Cc2ccc3[nH]c(C)nc3c2)n1`, the “% Inhibition” value is listed as -8% and the Z score is 1.3.
Regarding `CC(=O)Oc1c(-c2ccc(NC(=O)c3ccc(F)cc3)cc2)c(C2CC2)nn1-c1cccc(C)c1`, the “% Inhibition” value was -6% and the Z score was found to be 0.71.
`Cc1cc(C)nc(NC(=O)c2sc(C)nc2CC(C)C)n1`: the “% Inhibition” value is -26% and the Z score was 3.1.
`COc1ccc(CC(=O)NCC2(c3ccncc3)CC2)cc1`: the “% Inhibition” value is reported as 6% and the Z score was -0.87.
Take `Cc1nncn1CCN1CCN(C(=O)c2ccccc2)CC1`: the “% Inhibition” value was -19% and the Z score is 2.42.
Regarding `Cc1cc(C)c2c(N3CCCC3)nc(C(=O)N3CCN(C(C)C)CC3)nc2n1`, the “% Inhibition” value is reported as -9% and the Z score worked out at 1.45.
Regarding `Cc1cccc(Cl)c1N1C(=O)N[C@]2(CCOC2)C1=O`, the “% Inhibition” value was found to be 0% and the Z score stood at 0.02.
For `CN(CC1CCc2ccccc21)C(=O)[C@@H]1CS(=O)(=O)CC(=O)N1` (some centres not stated), the “% Inhibition” value is recorded as -6% and the Z score was found to be 1.26.
For `CCNS(=O)(=O)c1cc(-c2c(CC)noc2NC(C)=O)ccc1C` the same measures were -3% and 0.41.
The matching figures for `CC[C@@H](CO)NC(=O)Nc1ccc(F)cc1C#N`: -2% and 0.2.
Consider `Cc1ccc(CNCc2cnn(C)c2)c(OCC2CC2)c1`, for which the “% Inhibition” value was 2% and the Z score was -0.29.
For `Nc1c2c(-c3cccc(Cl)c3)nc(NCCN3CCOCC3)nc2nn1-c1ccccc1Cl`, the “% Inhibition” value was -18% and the Z score is 2.37.
Consider `O=S1(=O)CCc2cc(CN[C@H]3CCOC34CCCC4)ccc21`, for which the “% Inhibition” value is recorded as -2% and the Z score amounted to 0.52.
Consider `O=C(NCCNc1cccc(Br)c1)[C@@H]1CCCO1`, for which the “% Inhibition” value is recorded as 0% and the Z score is -0.03.
As to `Cn1cc(-c2ccc(=O)n([C@H]3CCC(C)(C)C3)n2)cn1`, the “% Inhibition” value is given as -18% and the Z score is reported as 1.94.
On to `CCN1CCO[C@H](C(=O)N2CCC(c3nc(N(C)C)no3)CC2)C1`, for which the “% Inhibition” value is -36% and the Z score was determined as 4.21.
On to `CC1CCCC(N(C)C(=O)NCCCC(C)(C)CO)C1` (configuration not stated), for which the “% Inhibition” value was determined as 3% and the Z score is given as -0.23.
With `O=C1COc2ccccc2N1Cc1nc(-c2ccc(N3CCOCC3)cc2)no1`, the “% Inhibition” value was -19% and the Z score came out at 2.51.
As for `COCCNC(=O)c1cc2cc(NC(=O)c3ccc(C(C)(C)C)cc3)ccc2n1Cc1cccc(F)c1`, the “% Inhibition” value is listed as -2% and the Z score came to 0.31.
With `O=C(COC[C@H]1CCCCO1)N1CCN(c2ncc[nH]c2=O)CC1`, the “% Inhibition” value is recorded as -7% and the Z score worked out at 1.
The matching figures for `CCOc1ccc(CCNC(=O)c2nn(-c3ccccc3)c(=O)n(C)c2=O)cc1OCC`: -10% and 0.91.
For `COc1ccc(CCNc2oc(-c3cccnc3)nc2C#N)cc1OC` the same measures were 34% and -5.48.
For the compound `O=C(NCc1nc(CN2CCCCC2)no1)c1cccc(F)c1O`, the “% Inhibition” value is -4% and the Z score worked out at 0.69.
For `CCC1CC(C(=O)N2CCCC2CC(O)c2cccs2)CCO1` (configuration not stated), the “% Inhibition” value is reported as -11% and the Z score worked out at 1.15.
As for `Cc1cc(CN(C)Cc2oc3ccccc3c2C)on1`, the “% Inhibition” value is given as -8% and the Z score was determined as 0.8.
Consider `Cc1cc(C(=O)N[C@@H](CC(C)C)c2ncnn2C)nc(C)n1`, for which the “% Inhibition” value was -6% and the Z score was 0.86.
For `CCCNc1ccccc1C(=O)N1CCC2(CC1)CN(C)CCN2C` the same measures were -10% and 1.35.

By % Inhibition is commonly meant the relative decrease from the control value, in per cent.
